Tests used:
[1] = test system: cabbage Alternaria sooty spot fungi (Alternaia brassicicola); experiment: Test Example C: cabbage Alternaria sooty spot, spray treatment of cabbage plants; format: in vivo; conditions: for Test C control value: cabbage Alternaria sooty spot; for Test C control value class (cabbage Alternaria sooty spot): control value=100{1-(n/3)}
Description: [Test Example C] Cabbage Alternaria Sooty Spot
Test plants (cabbage variety: Shikidori) were cultivated until the cotyledons extended after the sowing of seeds.
<Control Value> Control value=100{1−(n/3)}

[2] = test system: wheat brown rust fungi (Puccinia recondita); experiment: Test Example E: wheat brown rust, spray treatment of wheat plants; format: in vivo; conditions: for Test E control value: wheat brown rust; for Test E control value class (wheat brown rust): control value=100{1-(n/3)}
[3] = test system: gray mold fungi (Botrytis cinerea); experiment: Test Example B: tomato gray mold, spray treatment of tomato plants; conditions: for Test B control value: tomato gray mold; for Test B control value class (tomato gray mold): control value=100{1-(n/3)}
[4] = test system: grape downy mildew fungus (Plasmopara viticola); experiment: Test Example G: grape downy mildew, spray treatment of grape plants; conditions: for Test G control value: grape downy mildew, 7 to 10 days after inoculation; for Test G control value class (grape downy mildew): 2.5 ml/pot, grape Neomuscat, 7 to 10 days from inoculation
[5] = test system: barley powdery mildew fungi (Blumeria graminis f. sp. hordei); experiment: Test Example D: barley powdery mildew, spray treatment of barley plants; conditions: for Test D control value: barley powdery mildew; for Test D control value class (barley powdery mildew): control value=100{1-(n/3)}
[6] = spray treatment of cabbage plants
[7] = spray treatment of wheat plants
[8] = spray treatment of tomato plants
[9] = spray treatment of barley plants

Compound | Test C control value [1, 6] | Test E control value [2, 7] | Test B control value [3, 8] | Test G control value ([4]; 250 ppm spray (2.5 ml/pot)) | Test D control value [5, 9] | Test C control value ([1]; spray treatment) | Test E control value ([2]; spray treatment) | Test B control value ([3]; spray treatment) | Test G control value ([4]; 250 ppm spray) | Test D control value ([5]; spray treatment) | Test C control value class (cabbage Alternaria sooty spot) [1, 6] | Test E control value class (wheat brown rust) [2, 7] | Test B control value class (tomato gray mold) [3, 8] | Test G control value class (grape downy mildew) ([4]; 250 ppm spray) | Test D control value class (barley powdery mildew) [5, 9]
COc1ccc(-c2c(C)c(=O)c(C)cn2-c2ccccc2C)cc1 [Compound 242] | H (H shows the control value of more than 50%) | H (H shows the control value of more than 50%) | H (H shows the control value of more than 50%) | L (L shows the control value of 50% or less) | L (L shows the control value of 50% or less) | – | – | – | – | – | – | – | – | – | –
CC(C)c1ccccc1-n1cc(Cl)c(=O)c(Cl)c1-c1c(F)cc(F)cc1F [Compound 395] | – | – | – | – | – | H (H shows the control value of more than 50%) | H (H shows the control value of more than 50%) | H (H shows the control value of more than 50%) | H (H shows the control value of more than 50%) | H (H shows the control value of more than 50%) | – | – | – | – | –
Cc1c(-n2cc(Br)c(=O)c(Br)c2-c2c(F)cc(F)cc2F)cccc1C(F)(F)F [Compound 365] | H (H shows the control value of more than 50%) | L (L shows the control value of 50% or less) | H (H shows the control value of more than 50%) | L (L shows the control value of 50% or less) | L (L shows the control value of 50% or less) | – | – | – | – | – | – | – | – | – | –
Cc1cc(-n2cc(Cl)c(=O)c(Cl)c2-c2c(F)cc(F)cc2F)no1 [Compound 138] | – | – | – | – | – | – | – | – | – | – | H (H shows the control value of more than 50%) | H (H shows the control value of more than 50%) | H (H shows the control value of more than 50%) | L (L shows the control value of 50% or less) | L (L shows the control value of 50% or less)
CC(C)(C)Cn1cc(Br)c(=O)c(Cl)c1-c1c(F)cc(F)cc1F [Compound 195] | H (H shows the control value of more than 50%) | H (H shows the control value of more than 50%) | H (H shows the control value of more than 50%) | H (H shows the control value of more than 50%) | H (H shows the control value of more than 50%) | – | – | – | – | – | – | – | – | – | –
CCc1c(-c2c(F)cc(F)cc2F)n(-c2cccc(C)c2C)cc(Br)c1=O [Compound 528, 5-bromo-1-(2,3-dimethylphenyl)-3-ethyl-2-(2,4,6-trifluorophenyl)pyridin-4(1H)-one] | – | – | – | – | – | H (H shows the control value of more than 50%) | H (H shows the control value of more than 50%) | H (H shows the control value of more than 50%) | L (L shows the control value of 50% or less) | H (H shows the control value of more than 50%) | – | – | – | – | –
CCCn1cc(Cl)c(=O)c(Br)c1-c1c(F)cc(F)cc1F [Compound 7] | – | – | – | – | – | – | – | – | – | – | H (H shows the control value of more than 50%) | H (H shows the control value of more than 50%) | H (H shows the control value of more than 50%) | H (H shows the control value of more than 50%) | L (L shows the control value of 50% or less)
CCc1c(-c2c(F)cccc2F)n(-c2ccccc2Cl)cc(C)c1=O [Compound 512] | – | – | – | – | – | H (H shows the control value of more than 50%) | H (H shows the control value of more than 50%) | H (H shows the control value of more than 50%) | L (L shows the control value of 50% or less) | H (H shows the control value of more than 50%) | – | – | – | – | –
CC1CCCCC1n1cc(Br)c(=O)c(Cl)c1-c1c(F)cc(F)cc1F (centres unmarked) [Compound 159] | – | – | – | – | – | – | – | – | – | – | H (H shows the control value of more than 50%) | H (H shows the control value of more than 50%) | H (H shows the control value of more than 50%) | L (L shows the control value of 50% or less) | L (L shows the control value of 50% or less)
Cc1cn(-c2ccccc2)c(-c2ccc(F)cc2F)c(C)c1=O [Compound 466] | – | – | – | – | – | H (H shows the control value of more than 50%) | H (H shows the control value of more than 50%) | H (H shows the control value of more than 50%) | L (L shows the control value of 50% or less) | H (H shows the control value of more than 50%) | – | – | – | – | –
CC(C)CCn1cc(Br)c(=O)c(Cl)c1-c1c(F)cc(F)cc1F [Compound 202] | H (H shows the control value of more than 50%) | L (L shows the control value of 50% or less) | L (L shows the control value of 50% or less) | L (L shows the control value of 50% or less) | L (L shows the control value of 50% or less) | – | – | – | – | – | – | – | – | – | –
C=CCOc1ccc(C)c(-n2cc(Br)c(=O)c(Cl)c2-c2c(F)cccc2F)c1 [Compound 430] | – | – | – | – | – | L (L shows the control value of 50% or less) | H (H shows the control value of more than 50%) | H (H shows the control value of more than 50%) | L (L shows the control value of 50% or less) | L (L shows the control value of 50% or less) | – | – | – | – | –
O=c1c(Br)cn(-c2ccccc2Br)c(-c2c(F)cccc2F)c1Br [Compound 91] | – | – | – | – | – | – | – | – | – | – | H (H shows the control value of more than 50%) | H (H shows the control value of more than 50%) | H (H shows the control value of more than 50%) | L (L shows the control value of 50% or less) | L (L shows the control value of 50% or less)
CCC(C)Cn1cc(Br)c(=O)c(Cl)c1-c1c(F)cc(OC)cc1F (centres unmarked) [Compound 169] | – | – | – | – | – | – | – | – | – | – | H (H shows the control value of more than 50%) | H (H shows the control value of more than 50%) | H (H shows the control value of more than 50%) | H (H shows the control value of more than 50%) | L (L shows the control value of 50% or less)
O=c1c(Br)cn(-c2ccccc2)c(-c2ccc(F)cc2Cl)c1Cl [Compound 567] | – | – | – | – | – | H (H shows the control value of more than 50%) | H (H shows the control value of more than 50%) | H (H shows the control value of more than 50%) | L (L shows the control value of 50% or less) | L (L shows the control value of 50% or less) | – | – | – | – | –
COc1cccc(-n2cc(Br)c(=O)c(Cl)c2-c2c(F)cc(F)cc2F)c1C [Compound 366] | H (H shows the control value of more than 50%) | H (H shows the control value of more than 50%) | H (H shows the control value of more than 50%) | H (H shows the control value of more than 50%) | H (H shows the control value of more than 50%) | – | – | – | – | – | – | – | – | – | –

Source: patent US11000038B2, “Pyridone compounds and agricultural and horticultural fungicides containing the same as active ingredients” (priority 2017, dated 2021)
